Measured values from the RNAGym collection of RNA variant scans (doi:10.7554/elife.90254).
The source gives no read counts; variants with many changes may rest on few reads.

B1: LINE1-mini (parent)
chain: GGCAGAGCUCAACACAGCGUGGCAAAGUGGCUGUGGCUAGACUGCC

Variants of: B1
Test: self-cleavage, relative activity (ratio to wild type); higher = more cleavage; in vitro, sequencing; the parent is a self-cleaving ribozyme

| Variant | self-cleavage |
| --- | --- |
| A11U A14C G22C G35U | 0.02 |
| U9G A24G C31U C42G | 0.01 |
| U9A C10U A25C A39C | 0.01 |
| C10U G19C G27U G36A | 0.01 |
| C23G U34C C45U | 0.25 |
| A4G G7U A26C U32C U38G C45A | 0.02 |
| G2U A6G G22A A25G G29U A39G | 0.01 |
| A12C G21U G29U G35U G36A | 0.28 |
| A4U A11U G22U G27A | 0 |
| C3G G7C C8G G17U G40U C46G | 0.06 |
| U9A A14G A24U C31U | 0.01 |
| G1U C23G G44A | 0.17 |
| A14U U32C G33U | 0.05 |
| A4G U9A G19A | 0.03 |
| G5A A12U A14U G29C C46A | 0.03 |
| A14C G19A U20G G21U C46G | 0.03 |
| C10A U20C G27U | 0.04 |
| G22C C23G G36U C37A | 0.03 |
| A4U G21U C37A | 0.03 |
| C15U G21A C31G U38A | 0.05 |
| C8G A12C C13U G22A C37U U38C | 0.01 |
| C8G G29U A39C G40U | 0.05 |
| G2C A6G A14C G21C G29A U43C | 0.01 |
| G29U U38C C45A C46U | 0.06 |

| Variant | self-cleavage |
| --- | --- |
| A24U C31G G33C G44U | 0.03 |
| A11U C15A C37U C46G | 0.01 |
| C3U C10G A39C G40A | 0.02 |
| G5A C13A U38G A39G | 0.03 |
| G1C G19A A41U C42A | 0.21 |
| A6U G27A C37U C42U | 0.03 |
| C3U C31U C37A | 0.03 |
| G2C G29C C46A | 0.15 |
| G5C G7C A24U | 0.1 |
| U28G C31U C37U | 0.03 |
| G7U G30C G36C | 0.03 |
| U20G C42U C46U | 0.03 |
| A14C A26U G36U | 0.03 |
| G27U G29C G36U | 0.06 |
| C3G A16C A41G | 0.08 |
| G5U G7A C46A | 0.12 |
| G1U G22U A25G U34C | 0.01 |
| G22U U38G C42G | 0 |
| C18G C31A U38C G40A A41C | 0.03 |
| U9A C18U C23A G33C G36U G44A | 0 |
| C3A C15A G22C G35A | 0.24 |
| C3U C13U A26G | 0.1 |
| C3G A16C U20C | 0.04 |
| G1A C3A C23U C46A | 2.84 |

| Variant | self-cleavage |
| --- | --- |
| A12U C18G C46U | 0.05 |
| C10A A24C C37A U43G | 0 |
| G7A C8G G35U C45G | 0.1 |
| G2U C3U G22U | 0.15 |
| G29U C31G C37U | 0.06 |
| U9G C10G G27A C46G | 0.01 |
| G2U C15A A16G C18U | 0.05 |
| A6U C8U G19C G21C G22A C31U | 0.02 |
| A4C A16G U20G U38C C45G | 0 |
| A4U G5C A12G C15U | 0.08 |
| C8U C15A C18U | 0.04 |
| G17C U28C A41C | 0.01 |
| G1U C18A G29U U34G C46U | 0.03 |
| A16U G17U C45U | 0.02 |
| G7A U9G A25C | 0.05 |
| A12G G17U C23A | 0.04 |
| G2A A4C C13U | 0.92 |
| C3A C13U A16U G19A C31A | 0.19 |
| G1U A4C G5U C31A C37U | 0.03 |
| G1A G2A U32C | 0.37 |
| G1A G22A G40A | 0.11 |
| A24C U28A C45U | 0.1 |
| G2C G7U U9A C13G U28G | 0.02 |
| G2U A4C C42G | 0.01 |

| Variant | self-cleavage |
| --- | --- |
| G17A G19U C31G G40C | 0.02 |
| C3A G21A C31G C46G | 0.06 |
| G30C C37U G40U C45A | 0 |
| A11C G17A C42A G44U | 0.01 |
| G1U C8U U9A A11U A16U G33A G36U | 0 |
| A24G G27C C37U | 0.04 |
| C15A C31G C42U | 0.03 |
| U9C C10G A11G A14U C31U | 0.02 |
| U20C G29C C46U | 0.14 |
| C3A A25U G30A C46U | 0.24 |
| G2A G5U A12G U20C C31A C45G C46G | 0.08 |
| U9A C10G C13A C15G C42U | 0.05 |
| A6G G27C G33C | 0.02 |
| G19U C23U U38C | 0.67 |
| A12G C13U A16G U20A G21A A25C | 0.01 |
| C8A A16C G21C | 0.06 |
| A4G C23G C31G U34A | 0.01 |
| G5A C8A A16U U38C | 0.15 |
| A6G G33U C45U | 0.04 |
| G2C G7U C8G C42A | 0.09 |
| C3U G21U U28A | 0.06 |
| G7A U28C G35A | 0.44 |
| A6U U20G U32G G35A C46A | 0 |
| G5C A6G U9A | 0.01 |

| Variant | self-cleavage |
| --- | --- |
| C23A U38C C45U | 0.37 |
| C3U A4G A11C G29A G36C | 0 |
| G7C G21U U32C C46A | 0.07 |
| C3G C8U G17U U43A | 0.27 |
| G7A C8G U9A G21U C23G A24U A26U | 0.05 |
| G7A A11U G21U A25C A41G | 0 |
| C3A C13U G22C G44U | 0.08 |
| A4C G17C U20G | 0 |
| C8A C15A G19A C37A | 0.19 |
| A26C U28G C45U | 0.23 |
| C15A G22A C23U A26G G30C A39C | 0.01 |
| G2U A24U U38A G40C | 0.1 |
| C3G U9C U20G | 0.01 |
| C3U C15U C31G U34C | 0.06 |
| A6G C13A G29U C31A | 0.05 |
| G1U A24C G29C U32C | 0.03 |
| G1C G7C U32A G33U U38C A39U C45A | 0.04 |
| A4C G17U G35U | 0.04 |
| G22A G29U U38C A39U | 0.67 |
| U9G A12C G30A C42A C46U | 0.04 |
| G1C C15U C42U | 0.08 |
| A25U G33A C37G C42G | 0.09 |
| G1C A14G G30U | 0.01 |
| G1A C3G C8G C13G C31G U34G C37A C42G | 0.29 |

| Variant | self-cleavage |
| --- | --- |
| G5C A11G G17C G35C | 0.01 |
| U9C C10U G17A G27C C37U A41G | 0 |
| A41U C42A G44C | 0.03 |
| G7U C8A A24G G29A G35C | 0.4 |
| G2U A11G G17U G27A G44A | 0.01 |
| G2A G21A A24C G29U C37G | 1.21 |
| C13U G19C A26C G40U | 0.02 |
| G5C A11G C45G | 0 |
| G17U U32C G33C G40A | 0.04 |
| U9C A14U G21A G30A G35A C37U G44U C46A | 0.04 |
| G5C G19A C23A U38A U43A | 0.01 |
| U9C A12U C31U G40C A41U | 0.06 |
| U9A C18G A26C | 0.1 |
| A16G G30U G36U | 0.04 |
| A6G C10U A14U G22U | 0.11 |
| A11U G30A G33U | 0.02 |
| C8A C10U A14C | 0.02 |
| G17C C18A U32A | 0.05 |
| C3U A25G A26U G30C C45U | 0.15 |
| G2U G30U C42A | 0.05 |
| U9A U20C U32G G36C | 0.02 |
| C3G G19U G44A | 0.39 |
| C8G U28A U34A | 0.05 |
| C3U A25U A26U | 0.6 |

| Variant | self-cleavage |
| --- | --- |
| G2C G17U C18G C23A G35C C37U U43A C45A | 0.05 |
| C3U G7U C8A U9G C10A | 0.04 |
| G21C A26C G40U | 0.14 |
| C15G A39U G44C | 0.01 |
| G17C C23G G40A U43G | 0.2 |
| G19A C31A C37U U43C | 0.06 |
| G17A G22U C23U A24U U43C | 0.04 |
| C10U G19A A41U U43A | 0.05 |
| G2U U32G A39C U43C | 0 |
| G1U G2U G27C U32C G36A | 0.03 |
| A16G C18G U43C C46A | 0.01 |
| C15G G17A U34G | 0.03 |
| G7U U9G A25U | 0.1 |
| A16G G22A U28G | 0.92 |
| G2C A4G C10A G40C U43C | 0.01 |
| G5A A12C G17A C31U | 0.01 |
| G2A A11U A14U | 0.04 |
| C18G G21U G36A C46A | 0.01 |
| G7C U32G G40U | 0.06 |
| G2C A4G C10G G17C C37A | 0.01 |
| G35A A41G C45U | 0.12 |
| C3G C15A U28C G33A G35C | 0.07 |
| G5U A11U G21A | 0.04 |
